Assay results from PubChem BioAssay AID504339 (National Center for Advancing Translational Sciences (NCATS), 2011).
The whole screen tested about 390,000 compounds, of which about 17,000 (4.4%) were called active. Inconclusive means that the source gave no clear call. Such entries were picked first, then a sample of the others. Calls follow the shape of the dose curve; as a rule, active = well fitted inhibition curve with a large enough effect; inconclusive = small, poorly fitted or top-dose-only effect; inactive = no such curve, though single readings can be large or run the other way. Potencies of inconclusive entries are doubtful fits and often do not repeat.

Molecular target: Lysine-specific demethylase 4A (Homo sapiens) (UniProt O75164)
Sequence of UniProt O75164 (O75164 whole entry, looked up, the tested form may be a part): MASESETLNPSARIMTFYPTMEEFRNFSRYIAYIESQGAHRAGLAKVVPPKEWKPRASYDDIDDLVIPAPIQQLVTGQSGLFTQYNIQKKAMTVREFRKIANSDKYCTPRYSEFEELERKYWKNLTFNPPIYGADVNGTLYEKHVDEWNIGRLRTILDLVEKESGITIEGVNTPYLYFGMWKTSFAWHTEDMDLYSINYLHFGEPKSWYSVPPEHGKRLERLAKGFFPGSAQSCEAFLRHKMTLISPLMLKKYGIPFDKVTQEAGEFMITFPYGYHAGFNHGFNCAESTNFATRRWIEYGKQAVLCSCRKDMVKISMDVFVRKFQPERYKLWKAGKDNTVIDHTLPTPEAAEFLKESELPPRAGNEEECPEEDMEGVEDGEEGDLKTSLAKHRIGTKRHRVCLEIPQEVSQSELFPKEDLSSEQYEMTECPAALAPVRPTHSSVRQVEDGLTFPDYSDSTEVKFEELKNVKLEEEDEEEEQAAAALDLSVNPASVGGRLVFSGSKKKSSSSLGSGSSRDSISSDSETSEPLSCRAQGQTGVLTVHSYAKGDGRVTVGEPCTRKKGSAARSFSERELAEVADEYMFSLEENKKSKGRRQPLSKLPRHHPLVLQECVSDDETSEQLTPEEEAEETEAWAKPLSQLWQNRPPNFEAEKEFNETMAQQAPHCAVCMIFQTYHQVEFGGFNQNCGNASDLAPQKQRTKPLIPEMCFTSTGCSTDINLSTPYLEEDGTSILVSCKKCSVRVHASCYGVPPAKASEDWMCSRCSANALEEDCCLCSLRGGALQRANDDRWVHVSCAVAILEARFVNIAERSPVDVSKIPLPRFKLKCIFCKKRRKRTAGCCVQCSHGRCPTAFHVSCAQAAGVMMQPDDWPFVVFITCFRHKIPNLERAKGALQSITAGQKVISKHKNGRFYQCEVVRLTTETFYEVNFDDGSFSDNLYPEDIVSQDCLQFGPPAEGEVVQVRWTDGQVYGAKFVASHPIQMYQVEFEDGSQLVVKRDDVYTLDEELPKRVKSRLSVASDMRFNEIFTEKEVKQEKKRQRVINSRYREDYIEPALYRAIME
Experiment: qHTS Assay for Inhibitors of JMJD2A-Tudor Domain; also: nearly all actives have a fitted effect of over 50% in size
Conditions: AlphaScreen JMJD2A-Tudor / H3K4me3 peptide binding; series mostly up to 114 µM
Potency is read from the fitted curve at half-maximal effect; tags tell the direction and shape of the fitted curve.

Potency, inactive:
O=C1CC2(CCCCCC2)Oc2ccc(Cl)cc21
Cc1cc(C(=O)N2CCN(c3cccc(C)c3C)CC2)c2c(C)nn(-c3ccccc3)c2n1
CCN(CC)c1cc(CS(=O)c2ccccc2)nc(-c2ccccc2)n1 (centres undefined)
CCN(CC)C(=O)N1CCC(NC(=O)c2ccccc2)CC1
CCOC(=O)N1CCN(C(=O)COc2cc(C)c(Cl)c(C)c2)CC1
Cc1cccc(C(=O)NNC(=O)c2ccc3ccccc3c2)c1
Cc1ccc(NC(=O)Cn2c(=O)n(Cc3nc(C)no3)c(=O)c3ccccc32)c(Cl)c1
CCOC(=O)c1ccc(N(C(=O)c2ccco2)C(C(=O)NC2CCCCC2)c2ccncc2)cc1 (centres undefined)
Cc1c(CNC2CCCCC2)c(C(=O)O)c(C)n1Cc1cccc(Cl)c1
CCOc1ccccc1NC(=O)c1nc(SC(C)C)ncc1Cl
CC(=O)Nc1cccc(NC(=O)CSc2nnc3ccc(-c4ccncc4)nn23)c1
CCCc1nc2sc3ccccc3c(=O)c2c(=O)n1Cc1ccco1
O=C(CN1C(=O)COc2ccccc21)NCCc1ccc(Cl)cc1
Cc1cc(=O)n2nc(N3CCC(C(=O)NCC(C)c4ccccc4)CC3)sc2n1 (centres undefined)
c1ccc(C2=NNC(=NC3CC3)SC2)cc1

Potency, active:
Cc1ccc(/C=N/NC(=O)c2nnn(-c3nonc3N)c2CNc2ccccc2)cc1 22.4 µM
Cc1ccc(C(OCC(O)CNC(C)c2ccccc2)c2ccccc2)cc1 (centres undefined) 1.26 µM
COc1cc(OC)c(C2Nc3cccc4cccc(c34)N2)c(OC)c1 50.1 µM
CC(C)c1ccc(C2CC(=O)N3CN(Cc4ccco4)CSC3=C2C#N)cc1 (centres undefined) 39.8 µM
Cc1nc2ccccn2c1C(=O)N/N=C/c1ccc([N+](=O)[O-])o1 39.8 µM
Cn1c(=S)c2[nH]c(SCc3cccnc3)nc2n(C)c1=O 8.91 µM
Oc1[nH]c2ccccc2c1N=NC(=S)N1CCOCC1 7.08 µM
O=C(C1CCCO1)N1CCN(Cc2c(O)ccc3ccccc23)CC1 (centres undefined) 79.4 µM
O=C1Cc2cc(S(=O)(=O)N3CCN(c4ccc(Br)cc4)CC3)ccc2N1 141 µM
Cc1cc(O)c(N=Cc2cc3c(cc2[N+](=O)[O-])OCO3)cc1C 3.55 µM
S=c1[nH]nc(COc2ccccc2)n1C1CCCCC1 50.1 µM
CCC(c1c(C)[nH]oc1=O)c1c(C)[nH]oc1=O 25.1 µM
COc1ccc(N2CCN(CCCNC(=O)c3cc(Nc4ccc(OC)cc4OC)nc4ccccc34)CC2)cc1 25.1 µM

Potency, inconclusive:
O=C(C[C@H]1C[C@H](C(=O)N2CCOCC2)[C@@]2(CCC3CCCC3)c3[nH]c4cc(-c5ccco5)ccc4c3CCN2C1=O)NCC12CC3CC(CC(C3)C1)C2 56.2 µM [inhibitor, partial curve]
O=C(O)c1ccccc1/C=N/Nc1ccc(S(=O)(=O)Nc2ccc(Cl)cc2)cc1[N+](=O)[O-] 50.1 µM [inhibitor, partial curve]
COc1ccccc1C(C)NCC(=O)NC(=O)NCc1ccco1 (centres undefined) 56.2 µM [inhibitor, partial curve]
CS(=O)(=O)Nc1cccc(C2=NN(C(=O)c3ccco3)C(c3ccco3)C2)c1 (centres undefined) 56.2 µM [inhibitor, partial curve, poor fit]
Cc1cc(N(CCO)CCO)nc(-n2nc(C)cc2C)n1 89.1 µM [inhibitor, single point]
CCC(C)Sc1ccc(-c2nc3ccc(C)cn3c2NC2CCCCC2)cc1 (centres undefined) 79.4 µM [inhibitor, partial curve]
Cc1ccccc1C(=O)Nc1nnc2n1CCS2 56.2 µM [inhibitor, partial curve]
CC(=O)c1cccc(CN2CCCC(C(=O)Nc3ccc(-c4ccco4)cc3)C2)c1 (centres undefined) 50.1 µM [inhibitor, partial curve]
CC(=O)N1CCN(c2ccc(NCc3ccc(C)s3)cc2)CC1 50.1 µM [inhibitor, partial curve]
CC(C)OP(=O)(c1ccc(N(C)C)cc1)C(Nc1ccccc1)c1ccccc1 (centres undefined) 56.2 µM [inhibitor, partial curve]
COc1ccc(Nc2c3ccccc3nc3ccccc23)cc1 56.2 µM [inhibitor, partial curve]
COC(=O)C1=C(N)Oc2c(oc(CO)cc2=O)C1c1ccc(F)cc1 (centres undefined) 89.1 µM [inhibitor, single point]
COc1cc(/C=N/n2c(COc3ccccc3)n[nH]c2=S)cc(OC)c1OC(C)=O 44.7 µM [inhibitor, partial curve]
Cc1ccc2nsnc2c1S(=O)(=O)NCCc1c(C)[nH]c2ccc(F)cc12 39.8 µM [inhibitor, partial curve]
N#C/C(=N/Nc1ccc(OC(F)(F)F)cc1)C(N)=S 44.7 µM [inhibitor, partial curve]
O=C(O)CN1C(=O)/C(=C\c2cc(Br)ccc2OCc2ccccc2Cl)SC1=S 56.2 µM [inhibitor, single point]
O=C(NNCc1ccccc1)c1ccccn1 1.78 µM [inhibitor, full curve, poor fit]
COc1ccc(C(=O)N2CCCC(Nc3ccc(C)c(C)c3)C2)cc1F (centres undefined) 17.8 µM [inhibitor, partial curve, poor fit]
O=C(NC(=S)Nc1ccc(Cl)c(C(=O)O)c1)c1cccc(COc2ccccc2)c1 56.2 µM [inhibitor, partial curve]
Nc1ccc2ccc(O)cc2c1 63.1 µM [inhibitor, partial curve, poor fit]
OCCN1CCN(CCOc2cccc(Cl)c2)CC1 17.8 µM [inhibitor, full curve, poor fit]
